{"source": "the supplement of paper PMC3334620", "note": "The full ranking holds about 33,000 sequences; the median of “E-score (-0.5 to 0.5)” is about -0.054, and the highest 2% start at about 0.39. The list shows a part of the results."}
{"target": "Ylr278c (UniProt Q05854)", "assay": "PBM E-score (8-mer binding enrichment) (E-score (-0.5 to 0.5)); higher = stronger / more preferred TF binding; most listed sequences are background and not binding sites", "settings": "protein concentration: 200 nM; construct: GST-DNA-binding domain", "method_in_brief": "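The E-score, a modified Wilcoxon-Mann-Whitney statistic, was computed by the Universal PBM Analysis Suite for every ungapped eight-base word pooled with its reverse complement. Scans behind it were normalised with masliner after bound GST-tagged yeast transcription factors were detected with fluorescent anti-GST. The proteins, at about 100-200 nM, had been applied to universal all-10-mer Agilent arrays made double-stranded by primer extension.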"}
{"sequence": "AACGCTTC", "PBM E-score": -0.169}
{"sequence": "CTAAAGAA", "PBM E-score": -0.0978}
{"sequence": "ACCGCGGG", "PBM E-score": 0.299}
{"sequence": "AGCCGCAT", "PBM E-score": 0.105}
{"sequence": "CTCTAGAC", "PBM E-score": -0.273}
{"sequence": "ACATACTA", "PBM E-score": -0.0627}
{"sequence": "ATGAAAAG", "PBM E-score": -0.143}
{"sequence": "CAGAAATA", "PBM E-score": 0.0765}
{"sequence": "AACGGCAC", "PBM E-score": -0.00738}
{"sequence": "CTCCGAAG", "PBM E-score": 0.479}
{"sequence": "GAGCTCGA", "PBM E-score": -0.0304}
{"sequence": "ATGCCCTC", "PBM E-score": 0.00094}
{"sequence": "CTACAGAA", "PBM E-score": -0.124}
{"sequence": "CCTTTGTC", "PBM E-score": -0.0567}
{"sequence": "ATCATCGC", "PBM E-score": -0.07}
{"sequence": "CCCTTGTA", "PBM E-score": -0.129}
{"sequence": "TAGGCACA", "PBM E-score": -0.228}
{"sequence": "GTGATTTA", "PBM E-score": 0.108}
{"sequence": "TCCGGGAA", "PBM E-score": 0.419}
{"sequence": "CAGAGATC", "PBM E-score": -0.103}
{"sequence": "AATTTTTG", "PBM E-score": -0.187}
{"sequence": "AATCGTGG", "PBM E-score": -0.157}
{"sequence": "CCCTCACG", "PBM E-score": -0.114}
{"sequence": "GCATGCCC", "PBM E-score": 0.171}
{"sequence": "GGGTTGAC", "PBM E-score": 0.0106}
{"sequence": "AAAAGGAG", "PBM E-score": -0.0927}
{"sequence": "AGACGACG", "PBM E-score": -0.0891}
{"sequence": "ATCCAGTA", "PBM E-score": -0.111}
{"sequence": "AAGTCAAA", "PBM E-score": -0.0444}
{"sequence": "TGAGGACA", "PBM E-score": -0.364}
{"sequence": "AAGCACGG", "PBM E-score": 0.0376}
{"sequence": "GCTCGCAC", "PBM E-score": 0.0852}
{"sequence": "CGGCCGGA", "PBM E-score": 0.424}
{"sequence": "TCTAACCA", "PBM E-score": -0.147}
{"sequence": "CCTACAGC", "PBM E-score": -0.0683}
{"sequence": "AAACATTA", "PBM E-score": -0.158}
{"sequence": "CCCACAGG", "PBM E-score": -0.127}
{"sequence": "CCGCTTAG", "PBM E-score": 0.164}
{"sequence": "TACGCATA", "PBM E-score": -0.0249}
{"sequence": "CTTGTCGC", "PBM E-score": 0.03}
{"sequence": "TATCGAAA", "PBM E-score": -0.0101}
{"sequence": "ACTGAGAT", "PBM E-score": -0.265}
{"sequence": "AACTAAAG", "PBM E-score": -0.202}
{"sequence": "AGGGAACA", "PBM E-score": -0.0968}
{"sequence": "AAATATGG", "PBM E-score": -0.11}
{"sequence": "CTTGGGCC", "PBM E-score": -0.165}
{"sequence": "ATCAAGGG", "PBM E-score": -0.1}
{"sequence": "CAGGATTA", "PBM E-score": -0.0302}
{"sequence": "GTATCAAC", "PBM E-score": 0.0272}
{"sequence": "CGAGCACC", "PBM E-score": 0.0601}
{"sequence": "ACGACGAT", "PBM E-score": 0.0583}
{"sequence": "CAGAGATG", "PBM E-score": -0.246}
{"sequence": "CATCTTCA", "PBM E-score": -0.2}
{"sequence": "CCTGACTC", "PBM E-score": -0.101}
{"sequence": "AGACCTTC", "PBM E-score": -0.202}
{"sequence": "GCCCATCA", "PBM E-score": -0.238}
{"sequence": "AACTGAAA", "PBM E-score": -0.108}
{"sequence": "CCCAAGAC", "PBM E-score": -0.0804}
{"sequence": "CTCTCGCA", "PBM E-score": -0.218}
{"sequence": "GCGCCCGC", "PBM E-score": 0.116}
{"sequence": "GCGATCCC", "PBM E-score": 0.0902}
{"sequence": "TCAATTGA", "PBM E-score": 0.16}
{"sequence": "CCAGCGCG", "PBM E-score": -0.0217}
{"sequence": "CATCGGTC", "PBM E-score": 0.15}
{"sequence": "GCAAGAAC", "PBM E-score": -0.165}
{"sequence": "TATACGAA", "PBM E-score": 0.077}
{"sequence": "GGCCAACC", "PBM E-score": 0.00777}
{"sequence": "ACACTCCT", "PBM E-score": -0.0208}
{"sequence": "AATGATAA", "PBM E-score": 0.0641}
{"sequence": "AATTCCAC", "PBM E-score": 0.187}
{"sequence": "TCTGGCCA", "PBM E-score": -0.169}
{"sequence": "ATGGGGCG", "PBM E-score": 0.0403}
{"sequence": "ATCGACGC", "PBM E-score": -0.024}
{"sequence": "GCGATACC", "PBM E-score": -0.017}
{"sequence": "CCTTAGCA", "PBM E-score": -0.0796}
{"sequence": "AGAACTGA", "PBM E-score": -0.132}
{"sequence": "GGCCAGAC", "PBM E-score": 0.067}
{"sequence": "GGATTAAA", "PBM E-score": 0.236}
{"sequence": "GCGGTTGA", "PBM E-score": 0.0798}
{"sequence": "ATTTAGTA", "PBM E-score": 0.0902}
{"sequence": "AAACGTAT", "PBM E-score": -0.0445}
{"sequence": "ACTGGCAA", "PBM E-score": -0.119}
{"sequence": "ACCGTAAA", "PBM E-score": 0.0522}
{"sequence": "GCGCAAAA", "PBM E-score": 0.0206}
{"sequence": "AAATGTGG", "PBM E-score": 0.095}
{"sequence": "AAGTTCAT", "PBM E-score": 0.154}
{"sequence": "CACGTTGC", "PBM E-score": -0.194}
{"sequence": "AGGGAGTA", "PBM E-score": -0.114}
{"sequence": "GGACCCCC", "PBM E-score": 0.164}
{"sequence": "GAGCGCGC", "PBM E-score": 0.182}
{"sequence": "AGGCGGCC", "PBM E-score": 0.0798}
{"sequence": "AGGTCGAC", "PBM E-score": -0.181}
{"sequence": "ACTTGCAC", "PBM E-score": -0.0281}
{"sequence": "AGACCACC", "PBM E-score": -0.311}
{"sequence": "AGCGCGGA", "PBM E-score": 0.325}
{"sequence": "CTTTGCCC", "PBM E-score": -0.139}
{"sequence": "ACGCACTA", "PBM E-score": -0.166}
{"sequence": "CCCCTGAA", "PBM E-score": -0.144}
{"sequence": "ATGTATGG", "PBM E-score": -0.288}
{"sequence": "AGACCCCC", "PBM E-score": -0.114}
{"sequence": "ATCTATTA", "PBM E-score": -0.0154}
{"sequence": "CATCCAAG", "PBM E-score": -0.144}
{"sequence": "GCTAGTTA", "PBM E-score": -0.0866}
{"sequence": "CCTTCAAG", "PBM E-score": -0.169}
{"sequence": "AGCACGAT", "PBM E-score": -0.125}
{"sequence": "AAGGGTAG", "PBM E-score": -0.213}
{"sequence": "GCAGAATA", "PBM E-score": -0.00392}
{"sequence": "CAACTCAC", "PBM E-score": -0.234}
{"sequence": "ACGAGCCC", "PBM E-score": -0.122}
{"sequence": "ATTCTATG", "PBM E-score": -0.0868}
{"sequence": "AGGATATG", "PBM E-score": -0.0514}
{"sequence": "ATACCGAA", "PBM E-score": 0.2}
{"sequence": "TGAACAAA", "PBM E-score": 0.107}
{"sequence": "CAGTCTGG", "PBM E-score": -0.243}
{"sequence": "ATACGGGC", "PBM E-score": 0.0151}
{"sequence": "ATGTTCAA", "PBM E-score": 0.0484}
{"sequence": "CGTGGTTA", "PBM E-score": -0.335}
{"sequence": "CCGCCTTA", "PBM E-score": 0.00602}
{"sequence": "ACAATGCA", "PBM E-score": -0.0752}
{"sequence": "CAGGTTGG", "PBM E-score": -0.138}
{"sequence": "CCGCACGG", "PBM E-score": 0.254}
{"sequence": "CGAAAGCC", "PBM E-score": 0.0675}
{"sequence": "AAGTTCCT", "PBM E-score": -0.0671}
{"sequence": "AGTACTAA", "PBM E-score": -0.231}
{"sequence": "AAGACACG", "PBM E-score": 0.00593}
{"sequence": "AGTCCGTC", "PBM E-score": 0.381}
{"sequence": "AGATTCCA", "PBM E-score": -0.09}
{"sequence": "ACGATGCA", "PBM E-score": -0.0494}
{"sequence": "ATAGTAGA", "PBM E-score": -0.0513}
{"sequence": "ACTGTTGA", "PBM E-score": -0.0774}
{"sequence": "AGTATCTG", "PBM E-score": -0.207}
{"sequence": "TATATGAA", "PBM E-score": -0.17}
{"sequence": "GAGGTATA", "PBM E-score": -0.112}
{"sequence": "ATCAGACC", "PBM E-score": -0.0364}
{"sequence": "GATGTAGC", "PBM E-score": -0.145}
{"sequence": "GGAAGTCC", "PBM E-score": 0.307}
{"sequence": "AATGAGCT", "PBM E-score": -0.0278}
{"sequence": "ATCGCAAC", "PBM E-score": -0.13}
{"sequence": "AATATGCA", "PBM E-score": -0.0551}
{"sequence": "AAAGGCTC", "PBM E-score": -0.148}
{"sequence": "ACCTCTTA", "PBM E-score": 0.176}
{"sequence": "TCTCACAA", "PBM E-score": -0.0311}
{"sequence": "CTGATTCA", "PBM E-score": -0.0744}
{"sequence": "CAGTTGGA", "PBM E-score": -0.0915}
{"sequence": "GACTATCA", "PBM E-score": -0.204}
{"sequence": "CGTCGATA", "PBM E-score": 0.0682}
{"sequence": "ATCAAAAC", "PBM E-score": -0.0195}
{"sequence": "GAAGAGTC", "PBM E-score": -0.136}
{"sequence": "CCCTGATA", "PBM E-score": -0.265}
{"sequence": "ATGTTAAA", "PBM E-score": -0.083}
{"sequence": "CATTGCCC", "PBM E-score": -0.133}
{"sequence": "ACGGATGG", "PBM E-score": 0.0858}
{"sequence": "ACGAGGGC", "PBM E-score": 0.0615}
{"sequence": "GCCTCATA", "PBM E-score": -0.00634}
{"sequence": "AGTAATCC", "PBM E-score": 0.0754}
{"sequence": "AGGGCGAG", "PBM E-score": -0.148}
{"sequence": "ACTGGTCG", "PBM E-score": -0.143}
{"sequence": "GACAGCAA", "PBM E-score": -0.142}
{"sequence": "CGGTAAAG", "PBM E-score": 0.232}
{"sequence": "CTGGACCC", "PBM E-score": -0.204}
{"sequence": "ACGATCTA", "PBM E-score": -0.3}
{"sequence": "ACTCAAGC", "PBM E-score": -0.0206}
{"sequence": "GATCGCAC", "PBM E-score": -0.0452}
{"sequence": "CCACCACC", "PBM E-score": -0.108}
{"sequence": "AATTGAAT", "PBM E-score": -0.0912}
{"sequence": "CTACCACC", "PBM E-score": -0.0691}
{"sequence": "GTGACCCA", "PBM E-score": -0.153}
{"sequence": "CGTGCACG", "PBM E-score": 0.109}
{"sequence": "ATCCGCGG", "PBM E-score": 0.362}
{"sequence": "CGACCACC", "PBM E-score": 0.0671}
{"sequence": "GATGTTTA", "PBM E-score": 0.029}
{"sequence": "ATAATAGA", "PBM E-score": -0.119}
